PubChem BioAssay AID1240 (Sanford-Burnham Center for Chemical Genomics, 2008)
About 800 (1.6%) of roughly 50,000 compounds showed an effect of 50% or more. Some of the results follow.

The compounds below were run against Bcl-2-like protein 10 (Homo sapiens) (UniProt Q9HD36) (assay: TR3 peptide-Bcl-B binding displacers, biochemical primary FP assay, phenotype converters (AID 1240;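 also: 0% = Bcl-B with tracer peptide and DMSO and 100% = tracer peptide lacking Bcl-B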)). Settings: GST-Bcl-B / FITC-TR3 peptide fluorescence polarization; stronger effect = higher value; compound at 3.75 mg/L.
UniProt Q9HD36, sequence (Q9HD36 whole entry, looked up): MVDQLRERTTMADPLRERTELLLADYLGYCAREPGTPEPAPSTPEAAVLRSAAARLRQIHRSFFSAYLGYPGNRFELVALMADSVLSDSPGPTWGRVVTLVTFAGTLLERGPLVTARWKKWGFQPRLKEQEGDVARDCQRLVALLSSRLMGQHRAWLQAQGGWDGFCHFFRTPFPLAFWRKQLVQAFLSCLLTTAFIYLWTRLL
Work on `Cc1cccc(C(=O)N2CCCCCC2)c1` yielded a displacement of -4.2%. Compound `COC(=O)C1=C(C)N(Cc2ccco2)C(=O)/C1=C\c1cccc([N+](=O)[O-])c1` has a displacement of -3.4%. Compound `CC(C)C(NC(=O)c1ccccc1)C(=O)OCC(=O)Nc1ccc(S(N)(=O)=O)cc1` (stereo not given) has a displacement of 13.1%. `O=C1NC(=S)N(c2ccccc2F)C(=O)/C1=C/c1ccc(Sc2ccccc2)o1` was tested, and the displacement was 14.2%. `Cc1cccc(-c2nnc(NC(=O)Nc3ccc(Cl)c(Cl)c3)s2)c1` gave a displacement of 11.6%. `O=C(O)COc1ccccc1/C=N/NC(=O)COc1c(Br)cc(Br)cc1Br` was tested, and the displacement was 6.3%. In the case of `C=CCN1C(=O)/C(=C\c2ccc3c(c2)OCO3)SC1=Nc1ccccc1`, the displacement is reported as 1.6%. In the case of `COC(=O)c1cc(C(=O)N2CC(C)OC(C)C2)cc([N+](=O)[O-])c1` (stereo not given), the displacement is reported as 10.9%. In the case of `C/C(=C\C(=O)c1ccccc1)Nc1ccc(Br)c(Cl)c1`, the displacement is reported as 5%. `Cc1cc2nc3s/c(=C/c4ccccc4F)c(=O)n3c2cc1C` showed a displacement of 10.6%. In the case of `CCOCCOC(=O)c1ccc(NC(=O)c2cccnc2)cc1`, the displacement is reported as 14%. `Cc1ccnc(NC(=O)COc2cc(C)ccc2C(C)C)c1` showed a displacement of -15.3%. `CCOC(=O)c1sc(NC(=O)CC(c2ccccc2)c2ccccc2)c(C(N)=O)c1C` was tested, and the displacement was -1.5%. `COc1cc(C2Nc3ccccc3NC3=C2C(=O)CC(c2ccccc2)C3)cc(Cl)c1O` (stereo not given) showed a displacement of -0.9%. In the case of `COc1cc(C(=O)Nc2nc3ccc4ccccc4c3s2)cc(OC)c1OC`, the displacement is reported as 6.6%. `COc1cccc(C2CC(c3cccs3)=NN2c2ccc(F)cc2)c1OC` (stereo not given) was tested, and the displacement was 1%. With `COc1ccc(C(=O)/C=C\Nc2ccc3c(c2)OCO3)cc1OC` the displacement was 13.6%. Work on `Cc1ccccc1NC(=O)CCC(=O)N/N=C/c1cccnc1` yielded a displacement of 4.2%. `O=C1CS/C(=N/N=C/c2cc3c(cc2[N+](=O)[O-])OCO3)N1` showed a displacement of 4.2%. `CCOC(=O)CSc1nnc(-c2cccc(OC)c2)n1-c1ccccc1` gave a displacement of 2.4%. Compound `CSc1nc(-c2ccccc2)nc(N2CCOCC2)c1C(C)=O` has a displacement of 6.9%. Work on `CC(C)CC(=O)N1CCN(Cc2ccccn2)CC1` yielded a displacement of -12%. In the case of `COc1ccc(-c2n[nH]c(=S)n2-c2ccccc2)cc1`, the displacement is reported as 3.2%. For `CC1(C)CC(=O)C2=C(C1)Nc1ccccc1NC2c1cccc(Br)c1` (stereo not given), the displacement was 2.4%. `CCOC(=O)CCN1C(=O)/C(=C\c2cc(OC)c(OC)c(OC)c2)SC1=S` was tested, and the displacement was 10.6%. `CC(C)C(=O)Nc1cc(I)ccc1C(=O)O` was tested, and the displacement was -4.6%. For `CCOc1ccc(/C=N/NC(=O)c2cc(C3CC3)[nH]n2)cc1`, the displacement was -8.1%. `O=C(O)c1ccccc1-c1ccc(/C=C2\SC(=Nc3ccccc3)N(c3ccccc3)C2=O)o1` gave a displacement of 0%. Work on `CCCOc1ccc(C(=O)NCCCCCC(=O)O)cc1` yielded a displacement of 4.9%. Compound `Cc1ccc(-c2ccc(OCC(=O)Nc3cc(Cl)ccc3C)cc2)cc1` has a displacement of -6.2%. `O=S(=O)(c1ccccc1)N1C2C=CC(C2)C1(C(F)(F)F)C(F)(F)Cl` (stereo not given) was tested, and the displacement was -0.6%. `C(=NNc1cc(N2CCCCC2)nc(N2CCCCC2)n1)c1ccco1` showed a displacement of -0.5%. In the case of `CC(=O)Oc1c(C(C)C)cc(N(C(C)=O)c2ccccc2)cc1C(C)C`, the displacement is reported as 7.8%. In the case of `O=C(Nc1nc2ccccc2s1)c1ccc(S(=O)(=O)N2CCCCC2)cc1`, the displacement is reported as -3.3%. Compound `O=C(CSc1ccccc1)Nc1cccc([N+](=O)[O-])c1` has a displacement of 13.1%. With `CC1=C(C(=O)OCC2CCCO2)C(c2cccc(C(F)(F)F)c2)C2=C(CCCC2=O)N1` (stereo not given) the displacement was 6.7%. With `Cc1c(NC(=O)c2ccc(-c3cccc(Cl)c3)o2)cccc1-c1nc2ncccc2o1` the displacement was 8.4%. With `O=C(CSc1cccc2cccnc12)c1ccc(-c2ccccc2)cc1` the displacement was 21.5%. With `CCOC(=O)c1c(C)nc2n(/N=C/c3ccccc3[N+](=O)[O-])c3ccccc3n12` the displacement was 11.2%. `CC(C)COc1ccc(C(=O)NCc2cccnc2)cc1` showed a displacement of -10.9%. Compound `CCN(CC)c1ccc(/C=N/NC(=O)c2cc(C34CC5CC(CC(C5)C3)C4)[nH]n2)cc1` has a displacement of -7.4%. `CCN(CC)C(=O)C(=O)N/N=C/c1ccc(Cl)cc1Cl` gave a displacement of 1.8%. `O=C(CCNS(=O)(=O)c1ccccc1[N+](=O)[O-])N(Cc1ccccc1)Cc1ccccc1` was tested, and the displacement was 11.7%. `O=C(Oc1ccc([N+](=O)[O-])c(Cl)c1)c1c(F)cccc1F` gave a displacement of -8.9%. Work on `Cc1ccc(C(=O)NC2C(=O)N3C2SC(C)(C)C3C(=O)O)o1` (stereo not given) yielded a displacement of 11.6%. For `O=[N+]([O-])c1ccccc1C=NN1CCN(c2ccc(Cl)cc2)CC1`, the displacement was -2.6%. `COC(=O)c1c(C)oc2ccc(OC(C)C(=O)O)cc12` (stereo not given) showed a displacement of 10.3%. Compound `CC1CCN(C(=O)COc2ccc(-c3ccccc3)cc2)CC1` has a displacement of 11.9%. Work on `Cc1oc(/N=C/c2cccc3ccccc23)c(C#N)c1C` yielded a displacement of 12.4%. Work on `Cc1ccc(-c2nc3ccccc3o2)cc1NC(=O)c1ccccc1Br` yielded a displacement of 18.1%. For `NNC(=O)COc1ccc2c(c1Br)CCCC2`, the displacement was -25.1%. `O=[N+]([O-])c1cccc(CNC2CCCC2)c1` showed a displacement of 12.4%. For `Cc1cccc(N2C(=O)CC(Sc3ncn[nH]3)C2=O)c1` (stereo not given), the displacement was 8.5%. With `c1ccc(Nc2ncnc3sc4c(c23)CCC4)cc1` the displacement was -9.5%. For `COc1c([N+](=O)[O-])c(=O)oc2ccccc12`, the displacement was 16.9%. `Cc1ccc(CNC(=O)c2ccc(N(C)S(=O)(=O)c3ccccc3)cc2)cc1` gave a displacement of -6.2%. With `COCCNC(=O)CN(c1ccc(C)cc1)S(=O)(=O)c1ccc(SC)cc1` the displacement was 26.9%. With `O=C1NC(=O)N(c2ccc3c(c2)OCO3)C(=O)/C1=C/c1ccc(I)o1` the displacement was 17.5%. `CC(C)c1ccc(NC(=O)CN(CCc2ccccc2)S(=O)(=O)c2ccccc2)cc1` gave a displacement of -7%. Work on `CCC1CCCCN1S(=O)(=O)c1ccc(Cl)c([N+](=O)[O-])c1` (stereo not given) yielded a displacement of 12.2%. Compound `COc1ccccc1NC(=O)c1ccc(Oc2ccc(C(=O)Nc3ccccc3OC)cc2)cc1` has a displacement of -1.8%. `CC(C)Oc1ccc(NC(=O)CSc2nc3ccccc3s2)cc1` was tested, and the displacement was 11.8%. With `O=C1c2ccccc2C(=O)N1CCCc1nc2ccccc2c(=O)n1CCCn1ccnc1` the displacement was -5.9%. `O=C(CNC(=O)c1cccc(Cl)c1)N/N=C/C=C/c1ccccc1` showed a displacement of 2.3%. In the case of `O=C(O)COc1ccc(NC(=O)c2ccco2)cc1`, the displacement is reported as 15.4%. Compound `COc1ccccc1C/C(N)=N/OC(=O)c1cccc(I)c1` has a displacement of 9.7%. In the case of `CCOc1cc(C(=O)Nc2c(C)cc(C)cc2C)cc(OCC)c1OCC`, the displacement is reported as -3.1%. With `C/C(CC(C)(C)Nc1ccccc1)=N\O` the displacement was -2.4%. `COc1cccc(C(=O)Nc2ccc3oc(-c4ccc(F)cc4Cl)nc3c2)c1` was tested, and the displacement was 17.1%. With `COc1ccc(Cl)cc1-c1n[nH]c(=S)o1` the displacement was 5.6%.
